According to the supplement of paper PMC3334620:
Over roughly 33,000 sequences, “E-score (-0.5 to 0.5)” has its median near -0.01; the highest 2% begin near 0.26. The list shows a part of the results.

Molecular target: Ste12 (UniProt P13574)
Assay: PBM E-score (8-mer binding enrichment) (E-score (-0.5 to 0.5)); higher = stronger / more preferred TF binding; most listed sequences are background and not binding sites
Settings: protein concentration: 200 nM; construct: GST-DNA-binding domain
Procedure, shortened: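 Yeast transcription factors, full-length or as DNA-binding domains, were expressed with a GST tag using PURExpress in vitro transcription/translation. At about 100-200 nM they were applied to universal all-10-mer Agilent arrays, double-stranded by primer extension on fresh or once-stripped slides. Fluorescent anti-GST detected bound protein, and masliner normalised the scans. E-scores for ungapped eight-base words, pooled with reverse complements, came from the Universal PBM Analysis Suite.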

Sequence	PBM E-score
GGACGGAA	-0.121
AGCCCCCG	-0.128
ACAAGATA	0.0153
CGCCAACG	0.0757
ACTGCGAA	-0.193
AGGGTAGA	-0.076
GGTACGGA	-0.126
CATGTCGC	-0.0286
AGCTAGGC	-0.189
ACGTCCCA	-0.0997
CCAGTAAG	0.00325
GCGCAGCA	-0.227
GCTCCTAC	-0.199
ATGACTAC	-0.232
CTAAGCGA	-0.0793
CTGGTAAA	0.0096
ATTGAACG	-0.0599
ATCGTTGC	-0.153
CAGCCTAG	0.0593
AAGCAAAT	0.0456
AGGACCAG	-0.236
ATCACGAG	0.0437
AGCGTAAG	-0.158
ACGCTTTG	0.00226
GCTATCCC	-0.0374

Sequence	PBM E-score
ACTCTGAT	0.146
GGCACAGA	-0.098
AGCCGCCT	-0.164
CGCGGACG	-0.12
CCCTTCTA	-0.26
ACTGGCGC	0.106
AAGCGAAA	0.206
AACGAAGT	-0.104
GACGGCGA	-0.0919
ACATTCCG	-0.0362
AGTCTATA	-0.108
AATTAAAG	0.103
AACACATG	0.128
CTCAGCAA	-0.0278
CAGGGCTA	-0.0534
ATGATGAC	0.031
AATCAAAG	0.141
ACCGTGGC	-0.0352
GCGTTTAA	0.103
CCGCCTTC	0.0767
AAGTGCGA	-0.106
CCCGAAGG	-0.0324
CGCTTCTA	-0.104
TGCTAGCA	-0.159
GCACACTA	0.0103

Sequence	PBM E-score
AGTTAAAG	0.0651
CCACTGTC	-0.284
CCTTCCTA	-0.114
ACCATCTG	0.0494
AGAACGCG	0.113
CCAGGAAA	-0.0329
CGCGCGAA	0.0853
GGTCTTAC	-0.0717
ACTTGGCC	-0.0942
AGCTCAGA	-0.04
CAGGTTCC	-0.0376
CTTGTGAC	0.0782
CCATACCA	-0.0771
ATGGACCG	-0.00313
CATGGTTC	0.19
ATTGAGGC	0.0477
AATATGGA	0.123
ATACAGCC	-0.147
CACCCCGC	0.195
ACGCACCT	-0.112
AGTGTGTG	-0.123
GAGGAACC	-0.181
CATCAATC	0.122
CCGCTTGC	0.0426
CGCCTTCA	-0.166

Sequence	PBM E-score
AACTGGAA	0.0921
ATTACATA	-0.0261
AGATTACT	0.0149
CTAAACTC	-0.0817
TCATTACA	0.18
CAGTGCGG	-0.112
CTTTCTAC	0.0634
CGGGCAGA	0.0708
CACTCAAA	0.0429
GAACAACA	-0.00794
AGAAGACG	0.102
AAAGACGG	-0.0892
AACGTGTA	-0.0898
GGGCAATA	0.0526
ATATCAGC	0.0327
CGACTTTA	0.0771
TGAATGAA	0.208
AGATACCT	-0.124
CTAGAAAG	0.0535
GCGGTGTA	0.0847
TATCAGCA	0.0983
CAAGATGA	-0.0642
ACCCAAGG	-0.00448
TAACGGGA	-0.0427
ATCGACTA	-0.0298

Sequence	PBM E-score
CAAGTTCG	-0.0514
ACGGAACT	0.0365
AGAGATCA	-0.155
CTGTAATC	-0.0952
ATCGAAAT	0.0976
AGACCAGC	-0.267
ACTCCGTA	-0.107
CGGACGAC	0.0253
CAAGATAA	0.151
ATATGTAA	-0.0122
ATAATGGG	0.145
AGCGCGAT	0.114
GCAGTCCA	-0.113
ATTGTGGG	0.0634
ACGGTTCC	-0.0175
CTTATCGC	0.0827
TGGCACCA	-0.119
GACCGCAC	-0.159
ACCTAAAG	-0.015
GTCAAGAC	-0.0113
CCAAACCG	0.0704
AGACGTTC	-0.219
ATGCGCCA	0.0723
ATCTGGGC	-0.0628
ATTCTGCA	0.182

Sequence	PBM E-score
GCTCCGAC	0.0278
CCTCTTAA	0.078
CATTGCTA	-0.0578
CCACTACA	-0.0472
AACTCTAC	-0.139
ACAAGTAG	0.0562
AGGGAGAA	-0.185
CAACCAAA	0.21
CCCAAAGG	-0.199
CTCACATC	0.0669
AGATAAGC	0.0355
CGTAAGTA	-0.0906
AGTAAGCC	0.00504
ATTTCGCA	0.162
AAGGTCTG	0.0423
CCAATTCG	-0.0588
AGACAATG	-0.0392
AACCGCCG	0.132
AACAGGAC	-0.144
TCCTTTCA	0.00642
AGTAAAGC	-0.171
GAGCTACA	-0.169
CATATATA	0.283
AGGGACCC	-0.259
CCTGAGAC	0.101

Sequence	PBM E-score
ACGATCGG	0.0543
CGCCGTTC	-0.0924
GGTCATCA	-0.322
ACTCACGC	0.0283
CATCGTAA	0.175
ACTCTATA	0.114
AGGTGTCC	-0.176
AAGAAAGT	0.0943
GACCCATA	0.0501
GATAATGA	0.0951
AACCGTTA	-0.0675
GTGCAATA	0.0283
AAATGCGC	0.136
CCTACTAC	-0.0516
CCAGGCCC	-0.165
ATTGCCCC	0.0929
GCGTCAGA	-0.0135
GCCGATTA	0.164
AACTACTA	0.115
ACATCACA	0.0764
AGACGCCT	-0.101
GATTACCA	-0.0745
CATTAGGG	-0.166
AAAGTAGT	0.00407
ACGTAGTG	-0.249

Sequence	PBM E-score
CAGAGTGG	-0.239
AGAAACAG	0.0492
ATCCCAAA	0.178
TCAATCGA	0.0344
ATCAAAAG	0.0655
AGGCCAGG	-0.0224
AAGACGCC	-0.0126
CTAATATA	0.0456
CTGACAAG	-0.0158
GGAACCCC	-0.172
CTGTCAAG	-0.2
GCTTTACC	0.00976
CCTCAAAA	0.198
CCTCGTAC	-0.0391
AACTTTTA	0.228
ATGAGTAC	-0.0228
CCTAGGTC	-0.105
GGCCTACC	-0.134
TAACTGGA	-0.0107
GCCGTGCA	-0.12
ATGCTGAG	-0.11
CAACGCAG	-0.0949
GAATAACC	-0.144
AACCGACC	0.121
ACACACGG	-0.0544

Sequence	PBM E-score
GCCTGAAA	0.273
GCGCACCC	-0.0102
CACGTCTC	0.0586
ATAAACCG	0.0871
CTAATGCA	0.00892
CGTCGGAG	0.132
GGGCGCCC	0.159
CATGCTAA	-0.195
GACGCTCC	-0.0783
ACCCTTTC	-0.018
ACAGACGC	-0.153
GAACGTGA	-0.0866
GCCTCGTA	-0.0779
CACCTGCA	-0.121
GTAGCCGA	-0.236
CGGGACCG	-0.0541
GAATCACC	-0.0599
GTATCGCA	-0.126
CCGCTGAC	-0.075
AGTGAAAA	0.213
ACCTAGGT	0.0447
CCCGCACG	-0.0206
ACTAGACT	-0.123
AGTGTCAA	-0.0143
CAGATATC	-0.103

Sequence	PBM E-score
ACGGTGCC	-0.114
ACAAAGTC	-0.0664
ATGAGAAA	0.114
TAAGACGA	-0.112
AGCGATGA	0.0595
CAGGTTTA	0.0837
CCGCCTGA	-0.0902
ATGAGCAT	-0.102
AATAAGCC	0.108
ACTGGTCT	-0.117
CGCAGTTA	0.0341
CCCTCGTA	0.0496
CGCCCGGC	-0.0822
AGGGCGTG	-0.116
AGTATATG	0.143
CATTGACA	-0.0517
GGAACCGA	0.045
ACCACTGA	-0.144
ATATAGTC	0.107
CCCCCTAC	-0.195
CCAATGAA	-0.00717
CGTGTATC	0.0188
GGAGTACC	-0.152
ATGAAATC	0.185
ACACCCGA	0.16

Sequence	PBM E-score
GCTGAACC	-0.11
AAGATTCC	0.0227
GAGCAAAC	0.122
GAAGCGGA	0.0896
AGGACTAT	-0.0951
GCAAACGA	0.0921
ACGCGAGA	0.0932
CTATCTTC	0.0444
CATCACAG	-0.195
CCCGGCGA	-0.0972
CCCCTAAC	0.0263
CACGAAGG	-0.177
CTGCATGA	-0.167
AACGACGT	-0.0255
ATGACCAT	-0.0934
CCAACGCG	-0.107
AACGCCAT	-0.0406
ACTCTGTA	-0.211
AAGCAATC	-0.122
AAAGTAGC	-0.00641
CATGGAAG	-0.0967
ATGACGGG	-0.0119
ATTACATG	0.153
CGTTATCA	0.109
CTTATGAA	0.204

Sequence	PBM E-score
TACAGTAA	0.0747
AACCCCCT	-0.31
ATAGGTTC	-0.0324
GTTCGAAA	0.259
AAGTTTTA	0.287
CGCTCTCA	-0.199
AATAGGAT	0.217
TACGTTGA	-0.0157
CTCGTTTC	0.242
CGAGGCAC	-0.166
CCGTAATA	0.00265
CGAGAGAA	0.146
GGAATTAC	0.135
TCCCGGAA	0.173
AAGACAGC	-0.128
ATTTTAAC	0.19
ATTCACCC	0.0833
AGAATCCT	-0.0558
TAGTGTCA	0.0527
AGCTTCAA	0.0343
CCCTTCGA	-0.167
GAAATCGA	0.0812
ACTCGTTG	-0.066
TGTTCGAA	0.0877
AACATGAA	0.197

Sequence	PBM E-score
GAGGTTGC	-0.175
AGAACTCC	-0.0887
GTGGGGTA	0.302
ACTACACA	-0.0335
AACAGGTC	-0.03
ATGAAAAC	0.349
TGACAGAA	-0.00773
CGCGATAA	0.147
CAGATGGA	0.0921
AGGGGCCG	-0.0825
ATGCATTG	-0.246
CCGATAAA	0.161
CACAGACA	-0.0505
CTCCTAAG	-0.199
GGGTGATA	0.189
CGAGGTCC	-0.195
AAACCTCT	0.154
ATTCCATG	0.183
GACCATCC	-0.188
AAACTGGG	0.0635
CTATGCCC	-0.0243
ATTACGCA	0.038
GATATACA	0.212
AGAGTCCG	-0.196
ACCTTGTC	-0.0492

Sequence	PBM E-score
AGAGTTCC	-0.251
ACTCCGTG	-9e-05
CCGCCATA	0.00311
ATTCTTCC	0.102
GCACACCA	0.0397
CATCTCCG	0.0711
CCCACTCC	-0.136
AAGCCACA	0.0741
TCGCGTCA	0.129
CCCGGAGC	0.0174
GTCCATTA	0.0357
AACGACCC	-0.126
GCACTATA	-0.00293
ATGTCTGC	-0.0671
AAGCTGAT	0.139
CCTATAGA	0.00311
CCCCGAAG	-0.0163
CGTATATA	-0.0636
CTCACAAG	-0.151
